# Source: PMC3675359, “GxcC connects Rap and Rac signaling during Dictyostelium development” (BMC Cell Biology, 2013)
# Amino acid sequences for entries named in this document (tags omitted).
# UniProt P34149: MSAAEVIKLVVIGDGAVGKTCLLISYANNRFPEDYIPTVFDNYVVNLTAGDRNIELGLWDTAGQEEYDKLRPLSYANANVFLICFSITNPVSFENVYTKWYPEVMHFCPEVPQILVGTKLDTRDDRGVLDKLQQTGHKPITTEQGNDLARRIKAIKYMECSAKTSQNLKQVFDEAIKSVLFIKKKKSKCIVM
# UniProt Q9GPS3: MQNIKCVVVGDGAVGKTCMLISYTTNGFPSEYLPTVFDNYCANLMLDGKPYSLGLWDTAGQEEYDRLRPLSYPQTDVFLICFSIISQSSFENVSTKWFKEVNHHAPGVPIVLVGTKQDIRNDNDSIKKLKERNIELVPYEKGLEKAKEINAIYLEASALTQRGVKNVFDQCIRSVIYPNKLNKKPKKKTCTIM
# UniProt P18613: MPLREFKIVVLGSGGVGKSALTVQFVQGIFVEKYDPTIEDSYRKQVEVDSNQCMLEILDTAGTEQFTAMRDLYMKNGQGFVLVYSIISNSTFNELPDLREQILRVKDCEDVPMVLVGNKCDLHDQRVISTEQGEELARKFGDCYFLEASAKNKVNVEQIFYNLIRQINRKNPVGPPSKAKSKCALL
# UniProt P15064: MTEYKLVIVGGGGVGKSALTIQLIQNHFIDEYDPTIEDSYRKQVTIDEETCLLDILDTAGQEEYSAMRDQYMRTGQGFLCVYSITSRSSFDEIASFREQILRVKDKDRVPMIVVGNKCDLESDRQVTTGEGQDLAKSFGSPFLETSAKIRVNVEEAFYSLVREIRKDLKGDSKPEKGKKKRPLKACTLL
# These are yes or no findings as the source states them, for the method shown. For part of these data: In cells and extracts the contact can be indirect. Some binding calls cover weakened binding; strength is not graded here. Tags and fused reporters may be left off the sequences shown.
# T1: GST-RacL (Dictyostelium discoideum) (UniProt Q9GPQ8)
# T1 sequence: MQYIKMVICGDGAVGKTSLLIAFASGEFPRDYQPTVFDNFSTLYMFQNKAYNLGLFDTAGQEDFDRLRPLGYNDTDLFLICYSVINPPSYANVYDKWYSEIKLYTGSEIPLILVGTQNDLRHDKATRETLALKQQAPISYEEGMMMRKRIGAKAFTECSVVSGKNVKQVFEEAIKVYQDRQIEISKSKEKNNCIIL
# T2: GST-RacE (Dictyostelium discoideum) (UniProt Q23862)
# T2 sequence: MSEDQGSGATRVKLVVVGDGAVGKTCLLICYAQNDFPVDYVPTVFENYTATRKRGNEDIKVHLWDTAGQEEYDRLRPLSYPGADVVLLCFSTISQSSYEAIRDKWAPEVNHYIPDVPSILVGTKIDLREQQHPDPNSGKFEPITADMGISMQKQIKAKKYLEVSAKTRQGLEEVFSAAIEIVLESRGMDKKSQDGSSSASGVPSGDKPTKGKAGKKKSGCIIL
# T3: GST-RacG (Dictyostelium discoideum) (UniProt Q9GPS0)
# T3 sequence: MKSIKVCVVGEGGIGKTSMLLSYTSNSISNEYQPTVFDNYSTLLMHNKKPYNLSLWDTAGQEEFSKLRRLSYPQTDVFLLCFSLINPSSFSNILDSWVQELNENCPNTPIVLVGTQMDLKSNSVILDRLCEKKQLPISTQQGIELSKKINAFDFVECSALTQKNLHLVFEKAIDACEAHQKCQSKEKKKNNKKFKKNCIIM
# T4: RasC loaded with mGppNHp (Dictyostelium discoideum) (UniProt P32253)
# T4 sequence: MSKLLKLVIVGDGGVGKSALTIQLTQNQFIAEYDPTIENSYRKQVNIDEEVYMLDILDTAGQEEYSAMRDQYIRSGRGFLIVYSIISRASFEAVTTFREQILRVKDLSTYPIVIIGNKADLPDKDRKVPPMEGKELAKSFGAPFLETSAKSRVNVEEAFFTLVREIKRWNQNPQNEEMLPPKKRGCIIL
# Legend:
# [1] = molecular target: GST-RacC (Dictyostelium discoideum) (UniProt P34149); assay: pull-down; purified GST-Rac proteins coupled to GSH beads, incubated with pre-cleared lysate of vegetative GFP-GxcC Dictyostelium cells in the presence of EDTA, 4°C for 1 hour; anti-GFP and anti-GST western blot; only the target purified
# [2] = molecular target: T1, GST-RacL (Dictyostelium discoideum); assay: as above
# [3] = molecular target: GST-Rac1A (Dictyostelium discoideum) (UniProt P34144); assay: as above
# [4] = molecular target: GST-RacF2 (Dictyostelium discoideum) (UniProt Q9GPS3); assay: as above
# [5] = molecular target: T2, GST-RacE (Dictyostelium discoideum); assay: as above
# [6] = molecular target: T3, GST-RacG (Dictyostelium discoideum); assay: as above
# [7] = molecular target: RapA purified from E. coli (loaded with mGppNHp or mGDP) (Dictyostelium discoideum) (UniProt P18613); assay: guanine nucleotide dissociation inhibition (GDI) assay; RapA bound to mGDP instead of mGppNHp, in the presence of GST-ARM; both purified
# [8] = molecular target: RasG loaded with mGppNHp (Dictyostelium discoideum) (UniProt P15064); assay: guanine nucleotide dissociation inhibition (GDI) assay; G-protein loaded with mGppNHp incubated with an excess of unlabelled nucleotide; decay of fluorescence (kobs) at varying concentrations of GST-ARM; both purified
# [9] = molecular target: T4, RasC loaded with mGppNHp (Dictyostelium discoideum); assay: as above
Binder,binding [1],binding [2],binding [3],binding [4],binding [5],binding [6],binding [7],binding [8],binding [9]
"GFP-GxcC (protein, UniProt Q54P24 1-1215) MPIQFDAGLEQQVNQFLGDVDDFLTVKTGTTVDKLKSLLNCEEKSISYNAIAFLAFANQAAVNKDASREAGLIKLFLEFCHPSKIITVLPMVKHASMGLMFLANHSDENKKEIGDLKGIDTIFELLRDLLVMIKSPPEDVKKEDIVSSISQSLNLVIFLASLQSNREVMGTVQNFLVLNSLLAYENPQSLDLQLQIQEKALSATNNICMHKENKENCRVAGCIENVLKLLKSTKPSIQDSSLRMLYNMTITDANREAIRRCKGLETLASMLSGQAEALTLLSLKALSNMAVDRQTIEYAVANQESVLQPIYGVFPSSYGQGCSDALLDQVLTVIQNLVSEENLIDTVAKSGIIAKLVGATKGMPLTNTTHQSILVKASCIISALITIEEVQQAAVEQGVITLLVEMIQLPSAEVRREAARALANATPYYDDVRAEIGAQGGVKLCVDLLLQADKELVKQAARALVNLARNTHNEEKLYESKGLEHSIRLINSPEKDLKMLGTKLLVNLSLNEQARIAFCQKGGLSIVVQLLTSSDPELQLQGTKIATNLAISGRNRKVMNEQAPDLIPALKALVNSSVSDIKLQSEVSLNNLAFPYEASYEGLDQMEDAMPIFMQSSQYERDDDDEDDEDEAEKDERRRQEEEELRLAAEKEVEERKRIMQEEVKRIEERRKAEHEKRLQEEQELRQKKEEAEKLRLAQEAMEKLRLEQEAAAAAEAEKIRLAEEQRIIKEKEVAEQERIKQLTEQQKQKEEEEAKIALEKAKKEEAERLEKAEALRLQKEQEERIRKEKEIEAERLRVQEEERLAKERQAEEDRMRAVEEEKLKLMEAEIKQREEDIRRQKIEEEERRKREEQEKKLKDQQDKASQESARLAQEAARAQKRTHIVQEIMQVEVNYVKNLTLMVRKFLHPLAQLSTSKRPLLTPDRITQIFSTIENIQNHNSIFSDGLTSRIKRWLADNKKDHLIIGDIFQKIGGFMQDYSKYINNYNQSIKTYNETKKTNLPFAQFIKKVESDPELNDRELENLLITPVQQLPRYIMLIQDLIRNTHDDHPDYKPLTEALDKIKHITTIINEKKRDAEDAFAMLQIHQQVHGKVPNNFVTPHRKFIREGAVHFGSSSGSFKDKDPIVFLFNDMVMMTIKHPNKPNEYKYRYSCQFSTTTTIEELPSVNNGFIIKSNQWWSFSCSTPQEKTSWMETIQKSLTNLPKESKVLTSKK",binds weakly,binds,binds weakly,binds weakly,binds,binds,–,–,–
"NtermGxcC (aa 1-633), recombinant GST-ARM purified from E. coli (domain or fragment, UniProt Q54P24 1-633) MPIQFDAGLEQQVNQFLGDVDDFLTVKTGTTVDKLKSLLNCEEKSISYNAIAFLAFANQAAVNKDASREAGLIKLFLEFCHPSKIITVLPMVKHASMGLMFLANHSDENKKEIGDLKGIDTIFELLRDLLVMIKSPPEDVKKEDIVSSISQSLNLVIFLASLQSNREVMGTVQNFLVLNSLLAYENPQSLDLQLQIQEKALSATNNICMHKENKENCRVAGCIENVLKLLKSTKPSIQDSSLRMLYNMTITDANREAIRRCKGLETLASMLSGQAEALTLLSLKALSNMAVDRQTIEYAVANQESVLQPIYGVFPSSYGQGCSDALLDQVLTVIQNLVSEENLIDTVAKSGIIAKLVGATKGMPLTNTTHQSILVKASCIISALITIEEVQQAAVEQGVITLLVEMIQLPSAEVRREAARALANATPYYDDVRAEIGAQGGVKLCVDLLLQADKELVKQAARALVNLARNTHNEEKLYESKGLEHSIRLINSPEKDLKMLGTKLLVNLSLNEQARIAFCQKGGLSIVVQLLTSSDPELQLQGTKIATNLAISGRNRKVMNEQAPDLIPALKALVNSSVSDIKLQSEVSLNNLAFPYEASYEGLDQMEDAMPIFMQSSQYERDDDDEDDEDEAE",–,–,–,–,–,–,no binding (condition: RapA bound to mGDP),no binding,no binding
